Paper PMC4336329 (PLoS ONE, 2015)
Screen size: about 310,000 compounds; about 2,200 (0.71%) showed an effect of 50% or more. Effects have a minus sign here. This is one part of the list.

Molecular target: human ether-à-go-go-related gene (hERG) potassium channel (human, UniProt Q12809)
Assay: primary screen, population patch clamp on CHO cells stably expressing hERG

human ether-à-go-go-related gene (hERG) potassium channel, sequence (Q12809 whole entry, looked up): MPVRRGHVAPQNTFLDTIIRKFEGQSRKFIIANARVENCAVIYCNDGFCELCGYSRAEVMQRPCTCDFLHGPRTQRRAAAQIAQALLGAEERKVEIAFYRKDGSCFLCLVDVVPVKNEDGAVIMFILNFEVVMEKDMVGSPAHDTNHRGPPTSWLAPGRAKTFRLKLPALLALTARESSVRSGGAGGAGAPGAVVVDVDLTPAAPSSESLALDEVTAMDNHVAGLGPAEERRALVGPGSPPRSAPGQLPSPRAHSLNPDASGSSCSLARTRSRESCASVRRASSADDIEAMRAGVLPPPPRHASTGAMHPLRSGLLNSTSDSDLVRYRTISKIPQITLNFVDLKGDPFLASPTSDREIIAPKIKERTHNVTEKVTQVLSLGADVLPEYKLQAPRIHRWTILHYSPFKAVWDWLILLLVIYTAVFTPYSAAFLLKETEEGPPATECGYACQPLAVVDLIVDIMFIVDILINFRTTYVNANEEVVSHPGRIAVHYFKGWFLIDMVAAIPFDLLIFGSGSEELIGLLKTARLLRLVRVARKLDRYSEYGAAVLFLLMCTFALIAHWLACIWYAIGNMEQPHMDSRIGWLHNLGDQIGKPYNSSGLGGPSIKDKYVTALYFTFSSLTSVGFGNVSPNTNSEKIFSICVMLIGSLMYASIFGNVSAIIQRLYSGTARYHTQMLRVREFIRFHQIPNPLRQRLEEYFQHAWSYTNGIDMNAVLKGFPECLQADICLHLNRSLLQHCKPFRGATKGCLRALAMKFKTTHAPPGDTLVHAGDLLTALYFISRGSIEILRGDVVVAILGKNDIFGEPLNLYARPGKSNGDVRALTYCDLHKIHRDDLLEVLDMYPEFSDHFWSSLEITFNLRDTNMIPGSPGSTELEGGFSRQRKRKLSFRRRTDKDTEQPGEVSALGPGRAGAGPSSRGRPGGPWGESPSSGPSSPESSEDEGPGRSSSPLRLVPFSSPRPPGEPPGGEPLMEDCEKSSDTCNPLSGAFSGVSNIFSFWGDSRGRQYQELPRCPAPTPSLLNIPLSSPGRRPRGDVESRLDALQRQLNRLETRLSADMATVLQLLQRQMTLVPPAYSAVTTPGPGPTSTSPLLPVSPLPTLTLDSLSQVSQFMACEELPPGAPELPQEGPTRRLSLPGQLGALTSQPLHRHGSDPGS

Row | Compound | hERG current change (%, negative = inhibition) at 1uM
1 | O=C(NNC(=O)c1ccc[nH]1)c1cccc(C(F)(F)F)c1 | 9.97%
2 | CCOCCOc1nc2c(c(=O)n(C)c(=O)n2C)n1CCc1ccccc1 | 11.9%
3 | O=C(COc1ccccc1)Nc1c2c(nn1-c1ccc(F)cc1)CS(=O)(=O)C2 | 2.4%
4 | CCOc1ccc(-c2nnc(SCc3nc4ccccc4[nH]3)n2N)cc1 | -6.73%
5 | COC(=O)c1ccc(CN2C(=O)C(C)N(C(=O)c3c(F)cccc3F)c3ccccc32)cc1 (centres unmarked) | 17.2%
6 | CC(CCc1ccccc1)NC(=O)CNC(=O)N1CC(=O)Nc2ccccc21 (centres unmarked) | 18.5%
7 | COc1cc(NC(=O)CCN2CC(C)OC(C)C2)cc(OC)c1 (centres unmarked) | 6.56%
8 | Cc1ccc(Cl)cc1N(Cc1ccc(C(=O)NCc2cccnc2)cc1)S(=O)(=O)c1ccccc1 | 5.87%
9 | CC(C)N(C)C1CCN(C(=O)Nc2ccc(Cl)cc2)CC1 | -19.2%
10 | COc1ccc(S(=O)(=O)Nc2ccc(Oc3ccsc3C(=O)O)cc2)cc1 | 16.9%
11 | COc1ccc(C2c3ccc(O)cc3Oc3ncn(Cc4ccccc4)c(=N)c32)cc1OC (centres unmarked) | -0.742%
12 | COc1ccc(-c2nnc(SCC(=O)N(C)C3CCS(=O)(=O)C3)n2N)cc1OC (centres unmarked) | 13.8%
13 | CC(=O)Nc1ccc(NC(=O)CCC(=O)OCC(=O)c2ccc(F)cc2)cc1 | 6.64%
14 | O=c1c2cc(O)c(O)cc2oc2cc(O)c(C3OC(CO)C(O)C(O)C3O)c(O)c12 (centres unmarked) | 14.6%
15 | O=C(CNC(=O)c1ccc(OC(F)F)cc1)NCc1ccccn1 | 5.05%
16 | O=C(Cc1c[nH]c2ccccc12)NCc1cccs1 | 12.5%
17 | Cn1c(COc2ccc(Cl)cc2)nc2ccccc2c1=O | -0.497%
18 | Cc1ccc(S(=O)(=O)N2CCN(C)CC2c2ccccc2)cc1.Cl (centres unmarked) | 4.32%
19 | COc1ccc(S(=O)(=O)N2CCC(C(=O)Oc3ccc(C)cc3)CC2)cc1OC | -7.91%
20 | N#CCSc1nc2ccccc2c(=O)n1CCCC(=O)NCC1CCCO1 (centres unmarked) | 3.29%
21 | C=CCOc1ccc2c(OC)c3ccoc3nc2c1OC | 15.8%
22 | CCOC(=O)C1=C(C(C)=O)C(c2cccnc2)C(C#N)=C(N)O1 (centres unmarked) | 4.41%

Row | Compound | hERG current change (%, negative = inhibition) at 1uM
23 | CNC(=S)NCCc1ccc(OC)cc1 | 1.1%
24 | CC(CCc1ccccc1)NC(=O)CN1CCN(c2ccccc2)CC1 (centres unmarked) | -10.4%
25 | CCO[C@@H]1OC(C(=O)Nc2ccccc2)=C[C@H](c2coc3ccccc3c2=O)[C@H]1CCCO | -2.01%
26 | O=C(COC(=O)CNC(=O)c1ccc(Cl)cc1Cl)NC1CCCCCCC1 | 10.9%
27 | CN(Cc1c(F)cccc1Cl)c1ccc(S(=O)(=O)N2CCOCC2)cn1 | 9.85%
28 | CC(C)Nc1nc2n(c(=O)n1)CCN2C(C)C | 7.58%
29 | COc1ccc(NC2CCCN(C(=O)c3ccc4nc(C)c(C)nc4c3)C2)cc1OC (centres unmarked) | 8.28%
30 | COc1ccc(C(C)(C)C)cc1NC(=O)COC(=O)c1cc(SC)ccc1Cl | 6.72%
31 | COc1ccc(C(=O)N2CCOCC2)cc1S(=O)(=O)N1CCCc2ccccc21 | -5.13%
32 | CCn1nnc(NC(=O)C(C)Oc2ccc(Cl)cc2Cl)n1 (centres unmarked) | 10.5%
33 | S=C(NCc1ccccn1)Nc1ccc(Cl)c(Cl)c1 | 11.1%
34 | CC(C)(OC(=O)c1ccc(C#N)cc1)c1cc2ccccc2c(=O)o1 | -15.3%
35 | CCc1ccc(N=C2NC(=O)/C(=C/c3cc(OC)c(O)c(OC)c3)S2)cc1 | 15.2%
36 | Cc1ccccc1N(C(=O)CNC(=O)c1ccco1)C(C(=O)NC1CCCCC1)c1cccnc1 (centres unmarked) | 7.38%
37 | O=C(O)CCc1nnc2n(Cc3ccc(F)cc3)c(=O)c3ccccc3n12 | 10.3%
38 | Cc1ccc(/C=N/NC(=O)CSc2nc3ccccc3o2)cc1 | 9.37%
39 | O=C(N=C1N=C2C=CC=CN2Cc2ccccc21)c1ccc(S(=O)(=O)N2CCOCC2)cc1 | 10.2%
40 | CCn1c2ccccc2c2cc(NC(C)=O)ccc21 | 6.39%
41 | CC1CCCN(S(=O)(=O)c2ccc3c(c2)c(=O)nc2ccc(Cl)cn23)C1 (centres unmarked) | 6.42%
42 | CCn1c(=O)cc(NC2=NCC(C)CN2c2cccc(Cl)c2)n(C)c1=O (centres unmarked) | -7%
43 | Cc1nn(C)c(Oc2cccc(Cl)c2)c1C=O | 9.61%
44 | CN(C)CCNC(=O)c1sc2cccc(F)c2c1Cl | 8.33%
